Measurements published in ChEMBL document CHEMBL4888484, “Replenishing the malaria drug discovery pipeline: Screening and hit evaluation of the MMV Hit Generation Library 1 (HGL1) against asexual blood stage Plasmodium falciparum ,using a nano luciferase reporter read-out” (2022).
About 540 (0.36%) of roughly 150,000 compounds showed an effect of 50% or more. The list shows a part of the results.

Each compound was assayed on Plasmodium falciparum (assay: Primary screen in NF54 nanoGlo assay, in single point, at 2uM, 72h; a lower Z score goes with more inhibition). Conditions: timepoint 72 hour.
Type: functional, Erythrocyte
For `Cc1ccccc1CC(=O)Nc1nnc([C@H]2CC(=O)N(c3ccc(Cl)cc3)C2)o1`, the “% Inhibition” value was -5% and the Z score was 0.99. In the case of `CCCN(CCC)c1ncc(C(=O)O)cc1NS(=O)(=O)c1ccccc1`, the “% Inhibition” value is reported as -10% and the Z score is reported as 1.79. `O=C(COc1ccccc1)NC1CCC(n2cccn2)CC1` (stereo not drawn) was tested, and the “% Inhibition” value was -5% and the Z score was 0.96. In the case of `O=C1CN(Cc2ccccc2)C(=O)[C@@H](CO)N1`, the “% Inhibition” value is reported as -6% and the Z score is reported as 1.28. For `c1ccc2sc(CN3CCOCC3)nc2c1`, the “% Inhibition” value was -6% and the Z score was 0.65. `Cc1cc(NC(=O)C(C)N2CCCC(Cn3cncn3)C2)on1` (stereo not drawn) was tested, and the “% Inhibition” value was 8% and the Z score was -1.37. In the case of `CC(NC1CC(C)N(c2ccccc2)C1)C1CCOCC1` (stereo not drawn), the “% Inhibition” value is reported as 3% and the Z score is reported as -0.63. With `Cc1sc2ccccc2c1CN1C[C@H](N)[C@@H](O)C1` the “% Inhibition” value was -13% and the Z score was 1.59. With `O=C(c1ccc(S(=O)(=O)N2CCCC2)cc1)N1CC[C@]2(CCOC2)C1` the “% Inhibition” value was 1% and the Z score was -0.19. With `CCn1nc(C)cc1C(=O)Nc1ccc(C(N)=O)nn1` the “% Inhibition” value was -7% and the Z score was 1.3. In the case of `Cc1nn(C)c(C)c1CCC(=O)N1CCc2[nH]cnc2[C@H]1c1cccnc1`, the “% Inhibition” value is reported as 0% and the Z score is reported as 0.02. With `O=S1(=O)CCN(S(=O)(=O)c2cccc3nsnc23)CC[C@H]1c1cccs1` the “% Inhibition” value was 5% and the Z score was -0.89. `CC1CN(C(=O)CCS(=O)(=O)c2ccc(Cl)cc2)CC(C)O1` (stereo not drawn) was tested, and the “% Inhibition” value was -6% and the Z score was 0.89. `Cc1noc(Cl)c1CC(=O)N1CCC(c2ccccn2)CC1` was tested, and the “% Inhibition” value was 3% and the Z score was -0.56. With `Cc1ccc(S(=O)(=O)N2CCCCC2C)cc1C(=O)N1CCN(CC(C)O)C(C)C1` (stereo not drawn) the “% Inhibition” value was 8% and the Z score was -0.75. For `O=C(CCc1cccnc1)N1CCC2(CC1)CC(=O)N(C[C@H]1CCCO1)C2`, the “% Inhibition” value was -12% and the Z score was 2.45. In the case of `Cc1c(CNC2CCCCCCC2)c(C(=O)O)c(C)n1Cc1ccc(Cl)cc1`, the “% Inhibition” value is reported as -5% and the Z score is reported as 0.93. With `CC(=O)Nc1nc2ccc(S(=O)(=O)N3CCOCC3)cc2s1` the “% Inhibition” value was -10% and the Z score was 1.21. `CN(CCCC(=O)O)S(=O)(=O)N(C)C1CCCCC1` was tested, and the “% Inhibition” value was -10% and the Z score was 1.49. In the case of `Cc1nc(CC(C)C)c(NC(=O)N2CCOC(C(F)(F)F)C2C)s1` (stereo not drawn), the “% Inhibition” value is reported as -20% and the Z score is reported as 2.58. For `CC(C)CN1C[C@@H](CN2CCN(C)CC2)C[C@@H](C(=O)NCCc2c[nH]c3ccccc23)C1`, the “% Inhibition” value was -5% and the Z score was 0.55. In the case of `C[C@H](O)CN(C(=O)Nc1cc(Cl)ccc1Cl)C1CCS(=O)(=O)CC1`, the “% Inhibition” value is reported as 4% and the Z score is reported as -0.54. For `COC[C@@](C)(C#N)NC(=O)c1cccc(F)c1Cl`, the “% Inhibition” value was 2% and the Z score was -0.23. With `O=C(NCC1CCCO1)C1COC2(CCN(C(=O)c3ccccc3F)CC2)N1C(=O)c1ccccc1` (stereo not drawn) the “% Inhibition” value was -7% and the Z score was 0.94. `COc1ccc2cc(C(=O)NCc3nnc(N)s3)n(C)c2c1` was tested, and the “% Inhibition” value was -8% and the Z score was 1.04. With `Cc1cc(C)n(-c2ccc(CC(=O)Nc3ccccc3)cc2)n1` the “% Inhibition” value was -5% and the Z score was 0.87. With `COc1nc(C)nc(N[C@@H](C)CO)c1C` the “% Inhibition” value was 0% and the Z score was -0.05. For `COCCc1nc(CC(N)=O)nn1C1Cc2ccccc2C1`, the “% Inhibition” value was -11% and the Z score was 1.09. In the case of `CN(CCc1ccccc1)[C@H]1CCCN(C2CCN(Cc3ccco3)CC2)C1`, the “% Inhibition” value is reported as -2% and the Z score is reported as 0.33. With `CN(Cc1cscn1)C(=O)C1CC1c1ccc(Cl)cc1Cl` (stereo not drawn) the “% Inhibition” value was -4% and the Z score was 0.42. `CN(CCc1cccc2ccccc12)CC(=O)NCc1cccnc1` was tested, and the “% Inhibition” value was 6% and the Z score was -0.94. With `COc1cccc(NC(=O)Nc2ccc(N3CCN(C(=O)c4ccccc4Cl)CC3)nc2)c1` the “% Inhibition” value was 6% and the Z score was -0.54. With `CCS(=O)(=O)CCNC(=O)Cc1c[nH]c2cc(Cl)ccc12` the “% Inhibition” value was -3% and the Z score was 0.33. For `O=C(N[C@H]1CCCN(C2CCCCCC2)C1)c1cnccn1`, the “% Inhibition” value was -11% and the Z score was 1.63. In the case of `CCCc1ncc(C(=O)N2CC(=O)Nc3c(C)ccnc32)s1`, the “% Inhibition” value is reported as -4% and the Z score is reported as 0.77. `CC1CC(NC(=O)c2cncn2-c2ccc(-c3cc(C(F)(F)F)cc(C(F)(F)F)c3)cc2)CC(C)(C)C1` (stereo not drawn) was tested, and the “% Inhibition” value was 7% and the Z score was -0.91. `COc1cnc(C(=O)N2CCC[C@H](c3nc4ccccc4s3)C2)cc1O` was tested, and the “% Inhibition” value was -4% and the Z score was 0.53. With `CCN(C(=O)c1ccnn1C1CCC1)c1ccc(Br)cn1` the “% Inhibition” value was -13% and the Z score was 2.29. `Cc1cnc(C)n1CCC1CCN(C(=O)CC2CCCCC2)CC1` was tested, and the “% Inhibition” value was -6% and the Z score was 0.78. In the case of `O=C(c1cc(-c2ccc3c(c2)OCO3)on1)N1CCc2ccccc2C1`, the “% Inhibition” value is reported as -7% and the Z score is reported as 1.24. `O=C(Nc1ccc2c(c1)OCCO2)N1CCCCCCC1` was tested, and the “% Inhibition” value was -11% and the Z score was 1.67. `O=C(NCCF)c1cncn1-c1ccc(-c2cc(C(F)(F)F)cc(C(F)(F)F)c2)cc1` was tested, and the “% Inhibition” value was -3% and the Z score was 0.41. `Cc1cc(F)ccc1NC(=O)Cn1nc(C2CC2)c2c(C(F)F)cc(=O)[nH]c21` was tested, and the “% Inhibition” value was 37% and the Z score was -4.92. For `Cc1nc(CN(C)Cc2c[nH]nc2C2CCCCC2)no1`, the “% Inhibition” value was 6% and the Z score was -0.82. For `COc1ccc(C(=O)C2CCN([C@@H](C)CN3CCOCC3)CC2)cc1`, the “% Inhibition” value was 37% and the Z score was -3.32. With `O=C(NCc1ccc(Cl)cc1)c1c(O)c2cccnc2[nH]c1=O` the “% Inhibition” value was -5% and the Z score was 0.65. In the case of `CCOc1ccccc1C(=O)Nc1c(-n2cnnc2)nn(C)c1C`, the “% Inhibition” value is reported as 35% and the Z score is reported as -4.7. For `CC(=O)N1CCCN(C(=O)C[C@@H](c2ccccc2)c2cccc(Cl)c2)CC1`, the “% Inhibition” value was -11% and the Z score was 1. `CCN(C(=O)c1cc(F)cc(Br)c1)c1ncc[nH]1` was tested, and the “% Inhibition” value was 2% and the Z score was -0.2. `COCCN1CC2(CCC1=O)CCN(C(=O)c1ccc(N(C)C)nc1)CC2` was tested, and the “% Inhibition” value was -7% and the Z score was 1.11. With `C[C@@H](C(=O)N1CCC(n2ccnn2)CC1)c1ccc(Cl)s1` the “% Inhibition” value was -9% and the Z score was 1.33. In the case of `CCc1nc(CCNC(=O)N2C[C@H]3CCCC[C@H]3C2)no1`, the “% Inhibition” value is reported as 12% and the Z score is reported as -1.45. In the case of `O=C1C2C(Cc3c[nH]c4ccccc34)NC3(C(=O)Nc4c(Cl)cccc43)C2C(=O)N1c1ccc2c(c1)OCO2` (stereo not drawn), the “% Inhibition” value is reported as -7% and the Z score is reported as 0.92. `CCCc1noc(CN(C)C(=O)c2n[nH]nc2C)n1` was tested, and the “% Inhibition” value was -3% and the Z score was 0.43.
